Laboratory results taken from the supplement of paper PMC12217912.
Some of the results follow. Sequences were assembled here from the parent chain. Values near 0.05 are background.

B1: TEV protease; numbered along this chain (parent)
chain: MGESLFKGPRDYNPISSSICHLTNESDGHTTSLYGIGFGPFIITNKHLFRRNNGTLVVQSLHGVFKVKDTTTLQQHLVDGRDMIIIRMPKDFPPFPQKLKFREPQREERICLVTTNFQTKSMSSMVSDTSCTFPSGDGIFWKHWIQTKDGQCGSPLVSTRDGFIVGIHSASNFTNTNNYFTSVPKNFMELLTNQEAQQWVSGWRLNADSVLWGGHKVFMVKPEEPFQPVKEATQL

Variants of: B1
Assay: raw area under fraction-flipped curve 0-4 h after induction (AUC4h, not background-subtracted), DNA-recorder readout of cleavage of the substrate (dimensionless); higher = more cleavage of the substrate by the protease variant
Details: temperature: 34 °C; time window: 0-4 h after rhamnose induction
Procedure: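 In vivo DNA recorder in E. coli TOP10(DE3) ΔrhaA at 34 °C. Each TEVp single-site mutant (parent TEVp 0) is paired with a single-site variant of the 7-mer TEVs (canonical ENLYFQ|S). The substrate sits between flexible linkers in a Bxb1-sfGFP-TEVs-SsrA fusion, so cleavage stabilises Bxb1 and speeds flipping of a recombination array, read by NGS. The value is the raw area under the fraction-flipped curve over 0-4 h after rhamnose induction (AUC4h), with ≥20 reads per time point. It is not background-subtracted; inactive controls average about 0.047.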
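Further: Bxb1 expression induced with 0.2% (w/v) L-rhamnose at OD600 near 0.5, cultures sampled hourly, flipped fraction per protease–substrate barcode pair counted by paired-end Illumina sequencing.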

Variant	area with substrate ENLYFAS	area with substrate ENLYFCS	area with substrate ENLYFFS	area with substrate ENLYFHS	area with substrate ENLYFIS	area with substrate ENLYFMS	area with substrate ENLYFNS	area with substrate ENLYFPS	area with substrate ENLYFRS	area with substrate ENLYFYS	area with substrate ENLYFES	area with substrate ENLYFGS	area with substrate ENLYFKS	area with substrate ENLYFLS	area with substrate ENLYFSS	area with substrate ENLYFTS	area with substrate ENLYFVS	area with substrate ENLYFWS	area with substrate ENLYFDS
L235P	0.0614	0.0438	0.0598	0.067	0.0495	0.0369	0.0306	0.0614	0.067	0.0623									
E3V	0.0275		0.0572	0.0797	0.0824					0.061	0.0703	0.0581	0.0675	0.053	0.0666	0.0642	0.0653	0.0344	
E3W	0.0576		0.0692	0.0691	0.0555			0.0809		0.0562	0.0733		0.0645		0.0443			0.0519	
G214E	0.0633		0.0787	0.0457	0.0735	0.0672		0.0409			0.0614	0.0305		0.0549			0.0192	0.0476	
S201C	0.0612	0.0658	0.0577		0.0635	0.0455	0.0722			0.0544		0.0618	0.065		0.0598		0.0629	0.0265	0.0363
S201E	0.0523	0.056			0.0495	0.0683			0.058			0.0628			0.0574			0.0592	
S201N	0.0736		0.0739	0.0574	0.0628	0.034	0.0477	0.0583	0.0606	0.0721	0.0681		0.071	0.055	0.0532	0.0575	0.0456	0.0627	
T114L	0.0582	0.0562			0.0549	0.0582	0.0786	0.0645		0.0506	0.0754			0.0452	0.0621				0.0672
T233Y	0.046	0.0557	0.0639			0.0622		0.0564	0.0613	0.0517	0.0761		0.0451						0.0498
G202W	0.0568			0.0464	0.0455	0.0727	0.0703	0.0594		0.0762	0.0569		0.0561	0.0585		0.0556			0.05
W203S	0.0454	0.0499	0.0649	0.0752	0.0555	0.0657		0.0515	0.0063	0.0607	0.0652		0.0682			0.0549			
W203P	0.0583		0.0559					0.0436	0.0544							0.0688			
V57Q	0.0453	0.0573	0.0628		0.0484	0.0603	0.0671			0.055	0.0669				0.0582			0.0247	
T159P	0.0548				0.0563	0.057				0.0576				0.0604					0.0547
T115Q	0.0475	0.0577	0.0691	0.0591	0.0434	0.0663	0.0482	0.0548			0.0629		0.0648		0.057	0.0645	0.0521	0.0667	0.0528
T115K	0.0646		0.0672		0.0555	0.0681	0.0654	0.061	0.0674		0.0638	0.063	0.0779	0.0563	0.072	0.0541	0.0481	0.0647	0.0533
Q118W	0.0507	0.0545			0.0668	0.071		0.0551		0.0446	0.0562	0.0561	0.0551	0.0542		0.0651	0.0535	0.0549	

Variant	area with substrate ENLYFAS	area with substrate ENLYFCS	area with substrate ENLYFFS	area with substrate ENLYFHS	area with substrate ENLYFIS	area with substrate ENLYFMS	area with substrate ENLYFNS	area with substrate ENLYFPS	area with substrate ENLYFRS	area with substrate ENLYFYS	area with substrate ENLYFES	area with substrate ENLYFGS	area with substrate ENLYFKS	area with substrate ENLYFLS	area with substrate ENLYFSS	area with substrate ENLYFTS	area with substrate ENLYFVS	area with substrate ENLYFWS	area with substrate ENLYFDS
G2F	0.0484	0.056	0.0816	0.101	0.0488	0.0657		0.0474				0.0464					0.0459		0.0799
G2Y	0.0555	0.0518	0.0775	0.0648		0.09				0.0622	0.0868	0.0502	0.0577	0.0611					
A207R	0.0535	0.0542	0.0603	0.0624	0.0636			0.0441	0.0467		0.0596					0.0533	0.0118		
D27E	0.0772	0.0491			0.0573			0.0427	0.0715	0.0549	0.0669		0.0475		0.0673	0.0315			
V183G	0.0434		0.0572	0.0556		0.048	0.0365	0.0426		0.0476	0.049		0.0551	0.0099				0.0637	
G35A	0.0487		0.0553	0.0522				0.0319			0.0541	0.0576		0.0712			0.0311		
G35V	0.0419		0.0503		0.0366		0.05				0.0374		0.038			0.0344			
G35T	0.0452	0.0144	0.0489		0.0395	0.043		0.0406	0.0468	0.0306			0.058			0.0571	0.0443		
S124G	0.0687		0.0696		0.0367	0.0658	0.0464	0.0705	0.0454		0.054	0.0611	0.0825						0.0656
Q194A	0.0506	0.0516	0.0528	0.0527	0.0626	0.0749	0.0665	0.0678	0.055				0.0491			0.0596			
H76T	0.0579	0.0515			0.0761	0.0491	0.0466	0.06		0.0526							0.07	0.0646	
I110F	0.057	0.0557	0.0809	0.0686	0.0444	0.051	0.0642	0.0601		0.0566		0.0555	0.0529	0.0315	0.0743	0.0365	0.0546		
V220S	0.0414	0.0651			0.0554	0.0612	0.0698	0.0724			0.0559				0.0578				
R50N	0.0531																		
S209G	0.0628	0.061	0.0694		0.0581		0.0747	0.0545	0.0843				0.0766			0.0518	0.0615		
S209A	0.113			0.0647	0.0615						0.0684								0.063
